Measured values published in PubChem BioAssay (NCATS).
Values joined by “and” are separate entries in the source; they are usually repeats but may differ in a detail not shown here. Identical values can stand only once. The shares of active, inactive and inconclusive entries below differ from those in the screen. Potencies beside an inconclusive call are fits to weak or partial responses and may not hold up. More than one record can exist for a structure, and the calls need not agree. Active and inactive are the calls of the source. Calls come from the whole dose curve; as a rule, active = well fitted cell-killing curve with a large enough effect; inconclusive = small, poorly fitted or top-dose-only effect, or effect the other way; inactive = no such curve, though single readings can be large or run the other way.

Experiments:
[1] = Viability qHTS for spleen associated tyrosine kinase inhibitor (SYKi) naive MV4-11 cells (AID 1963823); conditions: MV4-11 AML viability, CellTiter-Glo luminescence, 72 h; viability (% of control): at 45 µM (top of the series); note: nearly all actives have a fitted effect of over 40% in size
Procedure, shortened: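 In this viability screen, compounds acted on SYK inhibitor naive MV4-11 cells for three days (72 hr, 37 C). Remaining viable cells were measured by CellTiter-Glo luminescence following a 10 min room-temperature development.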

[2] = Viability qHTS for spleen associated tyrosine kinase inhibitor (SYKi) drug resistant MV4-11 cells (AID 1963824); note: nearly all actives have a fitted effect of over 35% in size
Procedure, shortened: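 SYK inhibitor-resistant MV4-11 AML cells, 500 per well, added to predispensed compounds and incubated 72 hr at 37 C, 5% CO2. Viability measured by CellTiter-Glo luminescence after 10 min at room temperature.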
Potency is the fitted concentration of half-maximal effect; tags give direction and shape of the fitted curve.

O=C(O)c1ccc(O)c2ncccc12
Potency [1]: inconclusive: 8.33 µM [cytotoxic, full curve] | Potency [2]: inconclusive: 11.8 µM [cytotoxic, full curve]

C/C=C(\C)C(=O)OC1CC2C(CC=C3CC(OC4CC(OC)C(OC5CC(OC)C(OC6CC(OC)C(OC7CC(OC)C(OC8CC(OC)C(OC9OC(CO)C(O)C(O)C9O)C(C)O8)C(C)O7)C(C)O6)C(C)O5)C(C)O4)CCC32C)C2(O)CCC(C(C)=O)C12C (stereo unspecified)
Potency [1]: inconclusive: 2.75 µM [cytotoxic, single point] | Potency [2]: inconclusive: 2.45 µM [cytotoxic, partial curve]

CC[C@H](C(=O)Nc1ccccc1N1CCCC1)c1ccccc1
Potency [1]: inconclusive: 13 µM [cytotoxic, partial curve] | Potency [2]: active: 23.1 µM

CC1(C)CC[C@]2(C(=O)O[C@@H]3O[C@H](CO)[C@@H](O)[C@H](O)[C@H]3O)CC[C@]3(C)C(=CCC4[C@@]5(C)C[C@@H](O)[C@H](O)[C@](C)(C(=O)O)C5CC[C@]43C)C2C1O (stereo partly specified)
Potency [1]: inactive | Potency [2]: inactive

COc1ccc(C(OC2OC(CO)C(O)C(O)C2O)C(C)O)cc1 (stereo unspecified)
Potency [1]: inactive | Potency [2]: inactive

c1csc(CNc2ncnc3ccc(-c4ccc5c(c4)OCO5)cc23)c1
Potency [1]: inconclusive: 14.6 µM [cytotoxic, partial curve, poor fit] | Potency [2]: inconclusive: 8.2 µM [cytotoxic, partial curve, poor fit]

CC(=O)O[C@@H](C[C@@H]1C=C(C)C(=O)O1)[C@H](C)[C@H]1CCC2[C@@]3(C)CC[C@H](O[C@@H]4O[C@H](CO)[C@@H](O)[C@H](O)[C@H]4O[C@@H]4O[C@@H](C)[C@H](O)[C@@H](O)[C@H]4O)C(C)(C)C3CC[C@@]2(C)[C@@]12COC(=O)C2 (stereo partly specified)
viability (% of control) [1]: inactive: 81.6% [at 9.25 µM] | viability, % of control [2]: inactive: 89.9% [at 9.25 µM]

CC(=O)O[C@]1(C(C)=O)CC[C@H]2[C@@H]3C[C@H](C)C4=CC(=O)C=C[C@]4(C)[C@@]3(F)[C@@H](O)C[C@@]21C
Potency [1]: inconclusive: 9.2 µM [cytotoxic, partial curve, poor fit] | Potency [2]: inconclusive: 20.6 µM [cytotoxic, partial curve]

CC(=O)N[C@@H](C(=O)O[C@H]1CCC(C)(C)[C@@H]2CCC3=C(COC3=O)[C@@]12C)C(C)C
Potency [1]: inconclusive: 20.2 µM [cytotoxic, single point] | Potency [2]: inactive

O=C(NC(NC(=S)Nc1ccc(F)c([N+](=O)[O-])c1)C(Cl)(Cl)Cl)C(c1ccccc1)c1ccccc1 (stereo unspecified)
Potency [1]: inconclusive: 4.85 µM [cytotoxic, single point] and active: 3.26 µM | Potency [2]: inconclusive: 4.85 µM [cytotoxic, single point]

Cc1coc2ccccc2c1=O
Potency [1]: inactive | Potency [2]: inactive

CC(O)C/C=C/C=C/C(=O)OC1C=C2COC(=O)C2(O)C2(C)CCCC(C)(C)C12 (stereo unspecified)
Potency [1]: inconclusive: 16.1 µM [cytotoxic, single point] | Potency [2]: inconclusive: 14.3 µM [cytotoxic, partial curve]

CCN(Cc1cc(Nc2nc(C)cn3c(-c4cn[nH]c4)cnc23)sn1)C(C)(C)CO
Potency [1]: inconclusive: 0.0092 µM [cytotoxic, full curve] | Potency [2]: active: 0.0082 µM

C[C@@H]1O[C@@H](O[C@H]2[C@H](O[C@H]3[C@H](O[C@H]4CC[C@@]5(C)C(CC[C@]6(C)C5CC=C5[C@@H]7CC(C)(C)C[C@@H](O)[C@]7(C)CC[C@]56C)[C@@]4(C)CO)O[C@H](C(=O)O)[C@@H](O)[C@@H]3O)O[C@H](CO)[C@H](O)[C@@H]2O)[C@H](O)[C@H](O)[C@H]1O (stereo partly specified)
viability (% of control) [1]: inactive: 74.1% [at 9.25 µM] | viability, % of control [2]: inactive: 80.3% [at 9.25 µM]

COc1ccccc1S(=O)(=O)Nc1ccc2c(c1)CN(C)C(=O)N2
Potency [1]: inconclusive: 1.46 µM [cytotoxic, full curve] | Potency [2]: inconclusive: 1.64 µM [cytotoxic, full curve]

COCCCc1sc(-c2ccccc2)nc1C(=O)Nc1ccccc1-c1nc2cc(CN3CCCC3)cnc2s1
Potency [1]: inconclusive: 14.2 µM [cytotoxic, single point] | Potency [2]: inconclusive: 10 µM [cytotoxic, single point]

Clc1cc2c(NC3CCCC3)nnc(-c3ccncc3)c2cc1Cl
Potency [1]: inactive and active: 18.6 µM | Potency [2]: inconclusive: 1.53 µM [cytotoxic, full curve, poor fit]

C[C@@H]1O[C@@H](O[C@H]2[C@H](OC(=O)C34CCC5(C)C(=CCC6C7(C)CC(O)C(O[C@@H]8O[C@H](C(=O)O)[C@@H](O)[C@H](O)[C@H]8O)C(C)(C(=O)O)C7CCC65C)C3CC(C)(C)CC4O)O[C@H](C)[C@@H](O)[C@@H]2O)[C@H](O)[C@@H](O[C@@H]2OC[C@](O)(CO)[C@H]2O[C@@H]2O[C@H](CO)[C@@H](O)[C@H](O)[C@H]2O)[C@H]1O (stereo partly specified)
Potency [1]: inconclusive: 2.19 µM [cytotoxic, single point] | Potency [2]: inconclusive: 3.89 µM [cytotoxic, single point]

CCCCCc1ccc(/C=C/C(=O)Nc2cc(Cl)ccc2C(=O)O)cc1
Potency [1]: inconclusive: 20.6 µM [cytotoxic, single point] | Potency [2]: inconclusive: 11.6 µM [cytotoxic, partial curve]

Cc1cc(OCc2nc(-c3ccccc3Cl)cs2)ccc1OCC(=O)O
Potency [1]: inconclusive: 29.1 µM [cytotoxic, single point] | Potency [2]: inconclusive: 11.6 µM [cytotoxic, partial curve]

N#CC(CCCN1CCC(O)(c2ccc(Cl)cc2)CC1)(c1ccccc1)c1ccccc1
Potency [1]: inconclusive: 6.51 µM [cytotoxic, full curve] | Potency [2]: active: 5.8 µM

COC(=O)C1=C(C)NC(C)=C(C(=O)OCC(C)=O)C1c1ccccc1[N+](=O)[O-] (stereo unspecified)
Potency [1]: inconclusive: 11.9 µM [cytotoxic, partial curve, poor fit] | Potency [2]: inconclusive: 16.8 µM [cytotoxic, partial curve, poor fit]

Cc1nc2ccccn2c(=O)c1CCN1CCC(C(=O)c2ccc(F)cc2)CC1
Potency [1]: inconclusive: 21.1 µM [cytotoxic, single point] | Potency [2]: inconclusive: 18.8 µM [cytotoxic, partial curve, poor fit]

CCCSc1ccc2nc(NC(=O)OC)[nH]c2c1
Potency [1]: active: 0.668 µM | Potency [2]: inconclusive: 0.668 µM [cytotoxic, full curve, poor fit]

CC(C)(O)C1OC1C1=CC(=O)C2(C)OC2C1O (stereo unspecified)
Potency [1]: inconclusive: 25.9 µM [cytotoxic, single point] | Potency [2]: inconclusive: 10.3 µM [cytotoxic, partial curve, poor fit]

CC1=CCC[C@@H]2[C@@](C)(CCc3ccoc3)[C@H](C(=O)O)CC[C@@]12C
Potency [1]: active: 2.86 µM | Potency [2]: inconclusive: 4.04 µM [cytotoxic, full curve, poor fit]

Cc1cc(C(C)Nc2ccccc2C(=O)O)c2nc(N3CCOCC3)cc(=O)n2c1 (stereo unspecified)
Potency [1]: inconclusive: 7.31 µM [cytotoxic, partial curve] | Potency [2]: inconclusive: 8.2 µM [cytotoxic, partial curve]

Cn1cc(C2=C(c3ccc(Cl)cc3Cl)C(=O)NC2=O)c2ccccc21
Potency [1]: inconclusive: 3.66 µM [cytotoxic, partial curve] | Potency [2]: inconclusive: 4.61 µM [cytotoxic, full curve]

CCCCN(CCN(CCCC)C(=O)N1CCOCC1)C(=O)N1CCOCC1
Potency [1]: inconclusive: 13.3 µM [cytotoxic, partial curve] | Potency [2]: inconclusive: 9.44 µM [cytotoxic, partial curve]

c1ccc(-c2ncc(CN3CCN(c4ncccn4)CC3)[nH]2)cc1
Potency [1]: inconclusive: 23.1 µM [cytotoxic, single point] | Potency [2]: inconclusive: 29.1 µM [cytotoxic, single point]

COc1cccc(OC)c1-c1nc(C(=O)N[C@@H](CC(C)C)C(=O)O)cn1-c1ccnc2cc(Cl)ccc12
Potency [1]: inactive | Potency [2]: inconclusive: 16.4 µM [cytotoxic, single point]

COc1cc(/C=C/C(=O)OC(C)(C)C(OC2OC(CO)C(O)C(O)C2O)C(=O)OCc2ccc(OC3OC(CO)C(O)C(O)C3O)cc2)ccc1O (stereo unspecified)
Potency [1]: inactive | Potency [2]: inactive

CC(=O)Oc1cccc(O)c1
Potency [1]: inactive | Potency [2]: inactive

BrC1C(Br)C(Br)C(Br)C(Br)C1Br (stereo unspecified)
Potency [1]: inconclusive: 13 µM [cytotoxic, partial curve] | Potency [2]: inconclusive: 18.4 µM [cytotoxic, partial curve]

CC1(C)CCCC2(C)C(C(=O)O)=CCC12 (stereo unspecified)
Potency [1]: inactive | Potency [2]: inconclusive: 11.6 µM [cytotoxic, partial curve, poor fit]

CCc1cc2c(=O)c(-c3nc4ccccc4s3)coc2c(CN2CCCCC2)c1O
Potency [1]: inconclusive: 3.55 µM [cytotoxic, partial curve] | Potency [2]: inactive

CC1(C)CC[C@]2(C(=O)O)CC[C@]3(C)C(=CCC4[C@@]5(C)CC[C@H](O[C@H]6O[C@H](C(=O)O)[C@@H](O)[C@H](O[C@@H]7O[C@H](CO)[C@H](O)[C@H](O)[C@H]7O)[C@H]6O)C(C)(C)C5CC[C@]43C)[C@@H]2C1 (stereo partly specified)
Potency [1]: inconclusive: 3.48 µM [cytotoxic, single point] | Potency [2]: inconclusive: 3.1 µM [cytotoxic, partial curve]

O=C(Nc1ccc(-n2nc(C(F)(F)F)cc2C(F)(F)F)cc1)c1ccncc1F
Potency [1]: inconclusive: 10.3 µM [cytotoxic, partial curve] | Potency [2]: active: 10.3 µM
